Patent US20220153873A1 (ICAHN SCHOOL OF MEDICINE AT MOUNT SINAI, published 2022)
These are yes or no findings as the source states them, for the method shown. Some entries that bind do so weakly or less than the wild type.

B1: 4F11 antibody (murine IgG2b, hybridoma-produced) (antibody, V domains shown)
VH: DVKLVESGGDLVKPGGSLKLSCAASGFTFSAYSMSWVRQTPERRLEWVATINTGGSFTYYPDSVKGRFTISRDNAKNTLYLQMSSLKSEDTAMYFCTRVSDYGNSAYFPYWGQGTLVIVSA
VL: QVVLTQSPALISASPGEKVTMTCSASSNVNYMSWYQQRPRSSPKPWIYLTSKLASGVPPRFSGSGSGTSYSLTISSMEAEDVATYYCQQWSSDPQTFGGGTKVEIK
notes: also called mAb 4F11; 4F11 Hybridoma
B2: 3G1 antibody (murine IgG2a, hybridoma-produced) (antibody, V domains shown)
VH: QVQLQQSGAELMKPGASVKISCKATGYKFTSYWIGWVKQRPGHGLEWCGEIFPGSGSINYNEKFKGKATFTADTSSNTAYLQLTSLTSEDSAVYYCARGEDYYGSSYGAMDYWGQGTSLTVSS
VL: DVQITQSPSYLAASPGETITINCRASKSISKYVAWYQEKPGRTNKVLIYSGSILSFGNPSRFSGSGSGTDFTLTISSLEPEDFAMYYCQQHNEYPWTFGGGTKLEIK
notes: also called mAb 3G1
B3: 4B2 antibody (murine IgG2a, hybridoma-produced) (antibody, V domains shown)
VH: QIQLVQSGPELKKPGETVKISCKASGFTFTDYPMHWVKQAPGKSLKWMGWINTETEEPTYSDDFKGRFALSLETSASTTYLQINNLKNEDTATYFCARSGYYYGSTYAWFGYWGQGTLVTVSA
VL: DVVMTQIPLSLPVSLGDQASISCRSSQSLIHTNGDTFLHWYLQKPGQSPKLLIYKVSNRFSGVPDRFTGGGSGTDFTLKISRVEAEDLGIYFCSQSALFPYTFGGGTNLEIK
notes: also called mAb 4B2
B4: 1F4 antibody (murine IgG2a, hybridoma-produced) (antibody, V domains shown)
VH: QVHLQQSGSELRSPGSSVKLSCKDFDSEVFPIVYMRWIRQKPGHGFEWIGDILPSFGRTIYGEKFEDKATLDADTVSNTAYLELNSLTSEDSAIYYCARGDHGNWLAYWGQGTLVTVSA
VL: DIVMTQSHKFMSTSVGDRVTITCKASQDVSTAVAWYQQKPGQSPKLLIYWASTRHTGVPNRFTGIISGTDYTLTISSVQAEDLALYYCQQHYSAPWTFGGGTKLEIK
notes: also called mAb 1F4; IF4

Legend:
[1] = molecular target: recombinant neuraminidase (rNA) of B/Yamagata/16/88 (influenza B virus B/Yamagata/16/88) (UniProt Q90021); test: ELISA, rNA coated at 2 ug/mL; bar = minimal binding concentration
[2] = molecular target: neuraminidase of B/Yamagata/16/88 virus (on virus and on infected MDCK cells) (influenza B virus B/Yamagata/16/88) (UniProt Q90021); test: told with the ADCC result; binding by ELISA is shown in FIG. 1A

Binder | binding [1] | binding [2]
B1 | binds | –
B2 | no binding (tested: 10 ug/ml) | no binding (tested: low concentrations)
B3 | binds | –
B4 | binds | –
